{"source": "PubChem BioAssay AID504333", "about": "(National Center for Advancing Translational Sciences (NCATS), 2011)", "note": "Out of some 360,000 compounds screened, about 16,000 (4.4%) were called active. The shares of active, inactive and inconclusive entries below differ from those in the screen. Calls come from the whole dose curve; as a rule, active = well fitted inhibition curve with a large enough effect; inconclusive = small, poorly fitted or top-dose-only effect; inactive = no such curve, though single readings can be large or run the other way. Potencies beside an inconclusive call are fits to weak or partial responses and may not hold up. % is set by controls: 0 for no effect and ±100 for the full control effect; potency is the fitted concentration of half-maximal effect; tags give direction and shape of the fitted curve.", "data": [{"molecular_target": "Bromodomain adjacent to zinc finger domain protein 2B (Homo sapiens) (UniProt Q9UIF8)", "sequence (Q9UIF8 whole entry, looked up, the tested form may be a part)": "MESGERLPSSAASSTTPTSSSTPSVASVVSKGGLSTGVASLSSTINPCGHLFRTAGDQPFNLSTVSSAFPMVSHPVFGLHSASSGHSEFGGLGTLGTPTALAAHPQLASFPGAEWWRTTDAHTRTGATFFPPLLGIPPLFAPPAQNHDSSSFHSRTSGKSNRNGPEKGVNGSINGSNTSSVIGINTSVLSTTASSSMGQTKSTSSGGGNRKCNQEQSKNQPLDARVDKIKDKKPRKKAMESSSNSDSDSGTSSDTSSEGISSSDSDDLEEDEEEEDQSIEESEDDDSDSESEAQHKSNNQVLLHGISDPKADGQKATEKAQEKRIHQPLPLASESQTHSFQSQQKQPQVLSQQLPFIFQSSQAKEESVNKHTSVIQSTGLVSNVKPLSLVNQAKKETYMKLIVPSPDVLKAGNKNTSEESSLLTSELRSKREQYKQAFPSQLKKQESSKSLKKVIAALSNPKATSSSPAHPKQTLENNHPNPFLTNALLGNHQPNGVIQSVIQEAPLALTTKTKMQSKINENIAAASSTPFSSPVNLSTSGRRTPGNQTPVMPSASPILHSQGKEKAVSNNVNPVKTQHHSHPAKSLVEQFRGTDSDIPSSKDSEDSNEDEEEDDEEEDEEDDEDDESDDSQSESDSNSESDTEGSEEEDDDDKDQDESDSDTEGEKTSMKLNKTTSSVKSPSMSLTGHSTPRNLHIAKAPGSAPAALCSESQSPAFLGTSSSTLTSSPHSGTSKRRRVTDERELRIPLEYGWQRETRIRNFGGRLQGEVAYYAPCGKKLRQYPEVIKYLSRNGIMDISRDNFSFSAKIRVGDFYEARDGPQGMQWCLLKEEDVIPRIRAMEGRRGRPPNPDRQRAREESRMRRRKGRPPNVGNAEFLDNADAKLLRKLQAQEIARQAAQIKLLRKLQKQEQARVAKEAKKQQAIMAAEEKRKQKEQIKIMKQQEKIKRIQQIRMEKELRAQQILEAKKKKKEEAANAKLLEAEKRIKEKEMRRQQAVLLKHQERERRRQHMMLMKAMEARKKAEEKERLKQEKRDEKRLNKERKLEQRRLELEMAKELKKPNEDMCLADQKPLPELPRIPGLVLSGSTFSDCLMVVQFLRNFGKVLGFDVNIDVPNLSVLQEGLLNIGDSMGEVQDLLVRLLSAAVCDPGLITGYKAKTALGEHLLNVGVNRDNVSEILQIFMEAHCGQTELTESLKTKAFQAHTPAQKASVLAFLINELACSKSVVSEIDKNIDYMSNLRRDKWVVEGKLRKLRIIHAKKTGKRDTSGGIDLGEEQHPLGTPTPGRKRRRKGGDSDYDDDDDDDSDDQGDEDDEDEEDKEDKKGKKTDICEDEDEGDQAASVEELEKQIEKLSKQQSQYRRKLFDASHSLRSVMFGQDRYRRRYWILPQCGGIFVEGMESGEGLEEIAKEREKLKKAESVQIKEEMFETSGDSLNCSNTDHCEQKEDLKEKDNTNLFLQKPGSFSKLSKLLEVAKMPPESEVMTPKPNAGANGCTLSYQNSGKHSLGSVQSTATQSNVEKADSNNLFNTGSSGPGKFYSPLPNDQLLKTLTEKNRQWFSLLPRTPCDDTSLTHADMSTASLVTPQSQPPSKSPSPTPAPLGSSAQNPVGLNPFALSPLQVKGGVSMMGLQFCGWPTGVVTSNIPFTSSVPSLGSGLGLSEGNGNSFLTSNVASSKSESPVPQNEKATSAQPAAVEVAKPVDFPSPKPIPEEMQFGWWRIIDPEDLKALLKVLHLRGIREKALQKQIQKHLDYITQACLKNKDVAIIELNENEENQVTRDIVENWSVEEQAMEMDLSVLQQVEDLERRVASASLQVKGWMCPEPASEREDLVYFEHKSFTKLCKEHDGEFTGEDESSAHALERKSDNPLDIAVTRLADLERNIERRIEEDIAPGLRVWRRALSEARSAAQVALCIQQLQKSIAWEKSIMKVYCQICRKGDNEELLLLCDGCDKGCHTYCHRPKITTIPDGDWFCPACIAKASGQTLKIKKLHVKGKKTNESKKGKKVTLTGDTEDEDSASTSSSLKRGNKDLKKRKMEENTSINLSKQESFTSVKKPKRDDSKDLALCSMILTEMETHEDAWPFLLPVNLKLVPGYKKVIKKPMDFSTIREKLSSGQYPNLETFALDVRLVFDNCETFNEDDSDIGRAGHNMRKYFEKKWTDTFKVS", "assay": "qHTS Assay for Inhibitors of BAZ2B; note: nearly all actives have a fitted effect of over 60% in size", "conditions": "AlphaScreen BAZ2B-H3K14Ac peptide displacement; activity change, negative = inhibition: at 114 µM (top of the series)", "how_it_was_run": "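Compounds, titrated to a top concentration of 110 uM, were incubated 30 min at room temperature with preformed BAZ2B/acetyl-K14 H3 peptide complex (50 nM each). Proximity signal was measured by AlphaScreen after 20 min with beads.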", "values": [{"smiles": "Cc1ccnc(NC(=O)COC(=O)c2ccc(F)cc2F)n1", "activity change, negative = inhibition": "inactive: -30.6%"}, {"smiles": "CCN(CC)CCCN1C=C2C(=O)C(C)(OC(=O)C3CCCC3)C(=O)C(c3ccccc3)=C2C=C1CCCC(=O)OC", "note": "(stereo not given)", "Potency": "inconclusive: 79.4 µM [inhibitor, single point]"}, {"smiles": "CN(c1ccccc1)S(=O)(=O)c1nnc(NC(=O)COc2ccccc2F)s1", "Potency": "inconclusive: 89.1 µM [inhibitor, single point]"}, {"smiles": "O=c1c2c3c(sc2[nH]c(=S)n1Cc1ccco1)CCC3", "Potency": "active: 44.7 µM"}, {"smiles": "Cc1ccc(N2CCN(c3ccc(NCc4nc5ccccc5n4C)cc3)CC2)cc1", "Potency": "inconclusive: 10 µM [inhibitor, partial curve]"}, {"smiles": "Cc1ccc(NC(=O)CN2C(=O)CC(C)S(=O)(=O)c3ccccc32)cc1", "note": "(stereo not given)", "activity change, negative = inhibition": "inactive: -8.46%"}, {"smiles": "CCc1ccc(NC(=O)CS(=O)CC(=O)Nc2ccc(-n3cnnn3)c(C)c2)cc1", "note": "(stereo not given)", "Potency": "inconclusive: 89.1 µM [inhibitor, single point]"}, {"smiles": "O=c1nccc(N/N=C/c2ccccc2O)[nH]1", "Potency": "active: 50.1 µM"}, {"smiles": "COc1ccccc1N1CCN(C(=O)c2ccc3[nH]c4c(c3c2)CCCC4)CC1", "Potency": "active: 44.7 µM"}, {"smiles": "O=C(O)c1cc(-c2ccccn2)n[nH]1", "Potency": "active: 44.7 µM"}, {"smiles": "CC1=N/C(=C\\c2ccc([N+](=O)[O-])cc2)C(=O)N1c1ccc(Cl)cc1", "Potency": "inconclusive: 50.1 µM [inhibitor, partial curve]"}, {"smiles": "CCc1ccc(C(=O)c2cn(CC(=O)Nc3cccc(OC)c3)c3ccc(OC)cc3c2=O)cc1", "Potency": "active: 50.1 µM"}, {"smiles": "Cc1cc(N(C)/N=C/c2ccccc2O)nc(-c2ccccc2O)n1", "activity change, negative = inhibition": "inactive: 1.94%"}, {"smiles": "O=C(O)CCN1C(=O)/C(=C2\\C(=O)N(Cc3ccc(F)cc3)c3ccccc32)SC1=S", "Potency": "active: 2.51 µM"}, {"smiles": "COc1ccccc1N1CCN(c2ncnc3c2cnn3-c2cc(Cl)ccc2C)CC1", "activity change, negative = inhibition": "inactive: -16.6%"}, {"smiles": "COc1ccc(OCC(=O)NCc2ccc3c(c2)CCN3C(=O)c2ccccc2)cc1", "Potency": "inconclusive: 89.1 µM [inhibitor, single point]"}, {"smiles": "CC1=NOC(=O)/C1=C\\c1ccc2c(c1)OCO2", "Potency": "inconclusive: 79.4 µM [inhibitor, single point]"}, {"smiles": "CCOc1cc(Br)ccc1S(=O)(=O)NCc1ccccc1", "Potency": "inconclusive: 89.1 µM [inhibitor, single point]"}, {"smiles": "O=C(CSc1nnc(-c2ccccn2)o1)Nc1ccccc1C(F)(F)F", "Potency": "active: 50.1 µM"}, {"smiles": "O=C(Cc1cscn1)c1ccc(O)cc1O", "Potency": "inconclusive: 89.1 µM [inhibitor, single point]"}, {"smiles": "COc1cc(OC)c(OC)cc1/C=C1/Cc2ccccc2C1=O", "activity change, negative = inhibition": "inactive: 3.69%"}, {"smiles": "CCCC(/C=C/c1ccc(OC(C)=O)cc1)=C1/c2ccccc2C(=O)N1c1ccccc1", "activity change, negative = inhibition": "inactive: 47.9%"}, {"smiles": "O=C(Nc1nccs1)c1ccc(-c2ccc([N+](=O)[O-])cc2)o1", "Potency": "inconclusive: 79.4 µM [inhibitor, single point]"}, {"smiles": "Cc1cccc(Cn2c(=O)c3c(nc4n3CCCN4Cc3ccccc3)n(C)c2=O)c1", "Potency": "inconclusive: 89.1 µM [inhibitor, single point]"}, {"smiles": "CCNc1nc(NC(C)C)nc(SCCOC(=O)c2ccccc2)n1", "activity change, negative = inhibition": "inactive: 12.4%"}, {"smiles": "C=CCn1c(SCc2n[nH]c(=S)n2-c2ccccc2)nnc1-c1ccccc1", "activity change, negative = inhibition": "inactive: -13.4%"}, {"smiles": "CCOc1ccc(NC(=O)CSC2=Nc3ccccc3C3=NC(CCC(=O)NCc4ccccc4)C(=O)N23)cc1", "note": "(stereo not given)", "activity change, negative = inhibition": "inactive: -12.2%"}, {"smiles": "Nc1ccc(C(=O)NC23CC4CC(CC(C4)C2)C3)cc1", "Potency": "inconclusive: 89.1 µM [inhibitor, single point]"}, {"smiles": "CC(=O)c1cn(N(C)c2ncc(C(F)(F)F)cc2Cl)c(=O)[nH]c1=O", "Potency": "inconclusive: 89.1 µM [inhibitor, single point]"}, {"smiles": "CCCc1cc(C(N)=O)c(NC(=O)C2CCCO2)s1", "note": "(stereo not given)", "activity change, negative = inhibition": "inactive: 6.3%"}, {"smiles": "O=C(NCCCl)c1ccc(OCc2ccccc2)cc1Cl", "Potency": "inconclusive: 89.1 µM [inhibitor, single point]"}, {"smiles": "COc1c(Cl)cccc1-c1cn2ccc(C)cc2n1", "activity change, negative = inhibition": "inactive: -26%"}, {"smiles": "COc1ccc(-c2cc(C(F)(F)F)c(C#N)c(SCC(=O)O)n2)cc1OC", "activity change, negative = inhibition": "inactive: 38.3%"}, {"smiles": "COc1ccc(C2NC(=O)N(C)C3=C2C(=O)N(c2cccc(Cl)c2)C3)cc1", "note": "(stereo not given)", "Potency": "inconclusive: 79.4 µM [inhibitor, single point]"}, {"smiles": "CC1=CC2=NC(=O)/C(=C\\c3cccn3CCOc3ccccc3C)C(=N)N2O1", "Potency": "inconclusive: 35.5 µM [inhibitor, full curve]"}, {"smiles": "CCC1(CC)NC(=O)N(CC(=O)N2N=C(c3ccc(Cl)cc3)CC2c2ccco2)C1=O", "note": "(stereo not given)", "Potency": "inconclusive: 79.4 µM [inhibitor, single point]"}, {"smiles": "Cc1csc(CN(C)C(=O)CC2C(=O)NCCN2Cc2ccc(F)cc2Cl)n1", "note": "(stereo not given)", "activity change, negative = inhibition": "inactive: -17.1%"}, {"smiles": "COC(=O)CNc1c(-c2ccccc2)nc2ccc(Br)cn12", "activity change, negative = inhibition": "inactive: 58.1%"}, {"smiles": "COc1ccc(Cl)cc1NC(=O)c1cc(S(=O)(=O)NC2CCCCCC2)ccc1F", "activity change, negative = inhibition": "inactive: 3.26%"}, {"smiles": "O=C(N/N=C/c1c(O)n(-c2ccccc2Cl)c(=O)c2ccccc12)c1cccnc1", "Potency": "inconclusive: 70.8 µM [inhibitor, single point]"}, {"smiles": "Cc1oc2cc(O)ccc2c(=O)c1Oc1ccccc1", "activity change, negative = inhibition": "inactive: 3.87%"}, {"smiles": "CC12CCC(C/C1=N/NC(=O)COc1ccccc1Cl)C2(C)C", "note": "(stereo not given)", "Potency": "inconclusive: 89.1 µM [inhibitor, single point]"}, {"smiles": "O=C(O)c1cc2ccccc2c(=O)s1", "Potency": "inconclusive: 89.1 µM [inhibitor, single point]"}, {"smiles": "Cc1cnc(C(=O)OCC(=O)c2ccc[nH]2)cn1", "Potency": "inconclusive: 79.4 µM [inhibitor, single point]"}, {"smiles": "CCNC(=S)N1CCC(C(=O)c2ccc(Cl)cc2)CC1", "Potency": "inconclusive: 89.1 µM [inhibitor, single point]"}, {"smiles": "CS(=O)(=O)Nc1cccc(C2=NN(C(=O)c3ccco3)C(c3cccs3)C2)c1", "note": "(stereo not given)", "Potency": "inconclusive: 79.4 µM [inhibitor, single point]"}, {"smiles": "Cc1ccc(OCc2nc(-c3ccc(C(=O)N4CCN(c5ccccc5F)CC4)cc3)oc2C)cc1", "Potency": "inconclusive: 89.1 µM [inhibitor, single point]"}, {"smiles": "O=C1OC(C(=O)Nc2cccc(Br)c2)Cc2ccccc21", "note": "(stereo not given)", "Potency": "inconclusive: 89.1 µM [inhibitor, single point]"}, {"smiles": "COc1ccc(NC(=O)C(C)N2C(=O)c3ccccc3C2=O)cc1S(=O)(=O)N1CCOCC1", "note": "(stereo not given)", "activity change, negative = inhibition": "inactive: -19.7%"}, {"smiles": "CCCCC1=CC2=C(c3ccco3)C(=O)C(C)(OC(=O)c3ccc(OC)cc3)C(=O)C2=CN1Cc1ccc(OC)cc1", "note": "(stereo not given)", "Potency": "inconclusive: 2.24 µM [inhibitor, full curve]"}, {"smiles": "O=C(N/N=C/c1cc(Br)ccc1O)C(c1ccncc1)N1CCOCC1", "note": "(stereo not given)", "Potency": "active: 50.1 µM"}, {"smiles": "O=C(NCC(c1ccco1)N1CCc2ccccc21)c1cccc(F)c1", "note": "(stereo not given)", "Potency": "inconclusive: 89.1 µM [inhibitor, single point]"}, {"smiles": "CC1=NN(C(N)=S)C(=O)C1N=Nc1c(Cl)cc([N+](=O)[O-])cc1Cl", "note": "(stereo not given)", "Potency": "active: 39.8 µM"}, {"smiles": "COc1ccccc1NC(=O)CN(C)S(=O)(=O)c1ccc2c(c1)c(=O)n(C)c(=O)n2C", "activity change, negative = inhibition": "inactive: -3.53%"}, {"smiles": "O=C(Nc1nc2ccccc2n1CCN1CCOCC1)c1ccc(COc2ccccc2Br)o1", "Potency": "inconclusive: 25.1 µM [inhibitor, full curve]"}, {"smiles": "CCOc1cccc(C(=O)Nc2ccc3ccccc3c2)c1", "activity change, negative = inhibition": "inactive: 3.95%"}, {"smiles": "O=[N+]([O-])c1ccc(C(O)CN2CCN(C/C=C/c3ccccc3)CC2)cc1", "note": "(stereo not given)", "activity change, negative = inhibition": "inactive: -7.5%"}, {"smiles": "CCc1ccc(CNC(=O)CN2C(=O)COc3ccccc32)cc1", "activity change, negative = inhibition": "inactive: 5.97%"}, {"smiles": "COc1cccc(-c2nc(NC(C)C)c3ccccc3n2)c1O", "Potency": "inconclusive: 39.8 µM [inhibitor, full curve]"}, {"smiles": "CC(=O)c1ccc(Nc2nc(=O)c3cccnc3s2)cc1", "activity change, negative = inhibition": "inactive: -3.15%"}, {"smiles": "COc1ccc(-c2nnc(CSc3ncnc4sc5c(c34)CCC5)o2)cc1OC", "Potency": "inconclusive: 79.4 µM [inhibitor, single point]"}, {"smiles": "Cc1ccc(OCC(=O)Nc2ccc(S(=O)(=O)Nc3ccccn3)cc2)cc1C", "activity change, negative = inhibition": "inactive: -3.93%"}, {"smiles": "COc1ccc2c(c1)nc(SCC(=O)c1ccc(Br)s1)n2C", "Potency": "inconclusive: 50.1 µM [inhibitor, partial curve]"}, {"smiles": "Cc1c(OCC(=O)N[C@@H](Cc2c[nH]c3ccccc23)C(=O)O)ccc2c1oc(=O)c1ccccc12", "Potency": "inconclusive: 89.1 µM [inhibitor, single point]"}, {"smiles": "C=CCn1c(C)cc(C(=O)CSc2ccc(NC(C)=O)cc2)c1C", "Potency": "inconclusive: 44.7 µM [inhibitor, partial curve]"}, {"smiles": "Cc1nc(NN)nc(NCc2ccccc2)n1", "Potency": "inconclusive: 50.1 µM [inhibitor, partial curve]"}, {"smiles": "O=C(Oc1ccccc1F)c1ccc2c(=O)n3c(nc2c1)CCC3", "activity change, negative = inhibition": "inactive: -1.25%"}, {"smiles": "O=C(CCl)Nc1cc2[nH]c(=O)[nH]c2cc1Br", "activity change, negative = inhibition": "inactive: -20.6%"}, {"smiles": "CCN(c1ccccc1)S(=O)(=O)c1cccc(C(=O)NCC(c2cccs2)N2CCOCC2)c1", "note": "(stereo not given)", "activity change, negative = inhibition": "inactive: -6.19%"}, {"smiles": "COc1cc(C(=O)N2C(=O)CCC2=O)cc(OC)c1OC", "Potency": "inconclusive: 89.1 µM [inhibitor, single point]"}, {"smiles": "CCN(CC)c1ccc(CN2CCCCCC2)cc1", "Potency": "inconclusive: 89.1 µM [inhibitor, single point]"}, {"smiles": "CCOC(=O)c1c(NC(=O)CSc2ncccn2)sc2c1CCN(Cc1ccccc1)C2", "Potency": "inconclusive: 44.7 µM [inhibitor, partial curve]"}, {"smiles": "COc1cc(-c2cccs2)cc(=O)c2c(C)oc(C)c12", "Potency": "inconclusive: 70.8 µM [inhibitor, single point]"}, {"smiles": "CCC(=O)Nc1ccc2c(c1)nc1n2CCN(C2CCCCC2)C1", "Potency": "inconclusive: 79.4 µM [inhibitor, single point]"}, {"smiles": "CCOC(=O)c1c(C)[nH]c(C)c1C(=O)CSc1nnc(-c2ccc(OC(F)F)cc2)o1", "Potency": "inconclusive: 7.08 µM [inhibitor, single point]"}]}]}
